Results: the supplement of paper PMC8728848
This is one part of the list.

Legend:
Test in all cases: glycan array binding signal (z-score within array); higher = stronger binding
Conditions in all cases: glycan notation: IUPAC condensed, linker removed
Gal(b1-4)Glc6S = target: Gal(b1-4)Glc6S
Outline: (§1)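 Glycan array binding is given as a within-array Z-score, which can be read as non-binding when negative. The arrays, 3228 of them, came from the Consortium for Functional Glycomics database and were retained only where the protein sequence was available. Z-scores were averaged across arrays of the same protein sequence at different concentrations or buffers and across linkers.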

Gal(b1-4)GlcNAc = target: Gal(b1-4)GlcNAc
Outline: as §1

[1] = target: Gal(b1-4)GlcNAc(a1-6)Gal(b1-4)GlcNAc
Outline: as §1

Gal(b1-4)GlcNAc(b1-2)Man = target: Gal(b1-4)GlcNAc(b1-2)Man
Outline: as §1

[2] = target: Gal(b1-4)GlcNAc(b1-2)Man(a1-3)Man(b1-4)GlcNAc(b1-4)GlcNAc
Outline: as §1

[3] = target: Gal(b1-4)GlcNAc(b1-2)Man(a1-3)[Gal(b1-4)GlcNAc(b1-2)Man(a1-6)]Man(b1-4)GlcNAc(b1-4)GlcNAc
Outline: as §1

[4] = target: Gal(b1-4)GlcNAc(b1-2)Man(a1-3)[Gal(b1-4)GlcNAc(b1-2)Man(a1-6)]Man(b1-4)GlcNAc(b1-4)[Fuc(a1-6)]GlcNAc
Outline: as §1

[5] = target: Gal(b1-4)GlcNAc(b1-2)Man(a1-3)[Gal(b1-4)GlcNAc(b1-2)][GlcNAc(b1-4)]Man(b1-4)GlcNAc(b1-4)GlcNAc
Outline: as §1

[6] = target: Gal(b1-4)GlcNAc(b1-2)Man(a1-3)[GlcNAc(b1-2)Man(a1-6)]Man(b1-4)GlcNAc(b1-4)GlcNAc
Outline: as §1

[7] = target: Gal(b1-4)GlcNAc(b1-2)Man(a1-3)[Man(a1-6)]Man(b1-4)GlcNAc(b1-4)GlcNAc
Outline: as §1

[8] = target: Gal(b1-4)GlcNAc(b1-2)Man(a1-6)Man(b1-4)GlcNAc(b1-4)GlcNAc
Outline: as §1

[9] = target: Gal(b1-4)GlcNAc(b1-2)Man(a1-6)[GlcNAc(b1-2)Man(a1-3)]Man(b1-4)GlcNAc(b1-4)GlcNAc
Outline: as §1

[10] = target: Gal(b1-4)GlcNAc(b1-2)Man(a1-6)[Man(a1-3)]Man(b1-4)GlcNAc(b1-4)GlcNAc
Outline: as §1

[11] = target: Gal(b1-4)GlcNAc(b1-2)[Gal(b1-4)GlcNAc(b1-4)]Man(a1-3)[Gal(b1-4)GlcNAc(b1-2)Man(a1-6)]Man(b1-4)GlcNAc(b1-4)GlcNAc
Outline: as §1

[12] = target: Gal(b1-4)GlcNAc(b1-2)[Gal(b1-4)GlcNAc(b1-4)]Man(a1-3)[Gal(b1-4)GlcNAc(b1-2)[Gal(b1-4)GlcNAc(b1-6)]Man(a1-6)]Man(b1-4)GlcNAc(b1-4)GlcNAc
Outline: as §1

[13] = target: Gal(b1-4)GlcNAc(b1-2)[Gal(b1-4)GlcNAc(b1-4)]Man(a1-3)[GlcNAc(b1-4)][Gal(b1-4)GlcNAc(b1-2)Man(a1-6)]Man(b1-4)GlcNAc(b1-4)GlcNAc
Outline: as §1

[14] = target: Gal(b1-4)GlcNAc(b1-2)[Gal(b1-4)GlcNAc(b1-4)]Man(a1-3)[GlcNAc(b1-4)][Gal(b1-4)GlcNAc(b1-2)[Gal(b1-4)GlcNAc(b1-6)]Man(a1-6)]Man(b1-4)GlcNAc(b1-4)GlcNAc
Outline: as §1

[15] = target: Gal(b1-4)GlcNAc(b1-2)[Gal(b1-4)GlcNAc(b1-4)]Man(a1-3)[GlcNAc(b1-4)][Gal(b1-4)GlcNAc(b1-2)[Gal(b1-4)GlcNAc(b1-6)]Man(a1-6)]Man(b1-4)GlcNAc(b1-4)[Fuc(a1-6)]GlcNAc
Outline: as §1

[16] = target: Gal(b1-4)GlcNAc(b1-2)[Gal(b1-4)GlcNAc(b1-6)]Man(a1-6)[Gal(b1-4)GlcNAc(b1-2)Man(a1-3)]Man(b1-4)GlcNAc(b1-4)GlcNAc
Outline: as §1

[17] = target: Gal(b1-4)GlcNAc(b1-2)[Gal(b1-4)GlcNAc(b1-6)]Man(a1-6)[Gal(b1-4)GlcNAc(b1-2)Man(a1-3)]Man(b1-4)GlcNAc(b1-4)[Fuc(a1-6)]GlcNAc
Outline: as §1

[18] = target: Gal(b1-4)GlcNAc(b1-2)[Gal(b1-4)GlcNAc(b1-6)]Man(a1-6)[GlcNAc(b1-4)][Gal(b1-4)GlcNAc(b1-2)Man(a1-3)]Man(b1-4)GlcNAc(b1-4)GlcNAc
Outline: as §1

[19] = target: Gal(b1-4)GlcNAc(b1-3)Gal(b1-3)GlcNAc
Outline: as §1

[20] = target: Gal(b1-4)GlcNAc(b1-3)Gal(b1-4)Glc
Outline: as §1

[21] = target: Gal(b1-4)GlcNAc(b1-3)Gal(b1-4)GlcNAc
Outline: as §1

[22] = target: Gal(b1-4)GlcNAc(b1-3)Gal(b1-4)GlcNAc(b1-3)Gal(b1-4)GlcNAc
Outline: as §1

[23] = target: Gal(b1-4)GlcNAc(b1-3)Gal(b1-4)[Fuc(a1-3)GlcNAc(b1-6)]Gal(b1-4)Glc
Outline: as §1

[24] = target: Gal(b1-4)GlcNAc(b1-3)Gal(b1-4)[Fuc(a1-3)]GlcNAc(b1-3)Gal(b1-4)[Fuc(a1-3)]GlcNAc
Outline: as §1

[25] = target: Gal(b1-4)GlcNAc(b1-3)GalNAc
Outline: as §1

[26] = target: Gal(b1-4)GlcNAc(b1-3)[Gal(b1-4)GlcNAc(b1-6)]Gal(b1-4)GlcNAc
Outline: as §1

[27] = target: Gal(b1-4)GlcNAc(b1-3)[Gal(b1-4)GlcNAc(b1-6)]GalNAc
Outline: as §1

[28] = target: Gal(b1-4)GlcNAc(b1-3)[GlcNAc(b1-6)]Gal(b1-4)GlcNAc
Outline: as §1

[29] = target: Gal(b1-4)GlcNAc(b1-6)Gal(b1-4)GlcNAc
Outline: as §1

[30] = target: Gal(b1-4)GlcNAc(b1-6)GalNAc
Outline: as §1

[31] = target: Gal(b1-4)GlcNAc(b1-6)[Gal(b1-3)]GalNAc
Outline: as §1

Gal(b1-4)GlcNAc6P = target: Gal(b1-4)GlcNAc6P
Outline: as §1

Gal(b1-6)Gal = target: Gal(b1-6)Gal
Outline: as §1

Gal3S(b1-3)GalNAc = target: Gal3S(b1-3)GalNAc
Outline: as §1

Gal3S(b1-3)GlcNAc = target: Gal3S(b1-3)GlcNAc
Outline: as §1

[32] = target: Gal3S(b1-3)[Fuc(a1-4)]GlcNAc
Outline: as §1

Gal3S(b1-4)Glc = target: Gal3S(b1-4)Glc
Outline: as §1

Gal3S(b1-4)Glc6S = target: Gal3S(b1-4)Glc6S
Outline: as §1

Gal3S(b1-4)GlcNAc = target: Gal3S(b1-4)GlcNAc
Outline: as §1

Gal3S(b1-4)GlcNAc6S = target: Gal3S(b1-4)GlcNAc6S
Outline: as §1

[33] = target: Gal3S(b1-4)[Fuc(a1-3)]Glc
Outline: as §1

[34] = target: Gal3S(b1-4)[Fuc(a1-3)]Glc6S
Outline: as §1

B1: ArathEULS3 (Arabidopsis thaliana), Q945P1 (protein)
chain: MEHHHQHHRHHQRDDGEDDRQSFGVPPPHVDAPPQPHGLYQSQPHFDPYAPTPQAPAPYRSETQFEPHAPPPYRSEPYFETPAPPPSFGHVSHVGHQSPNESYPPEHHRYGGYQQPSNSLLESHGDHSGVTHVAHHSSNQPQSSSGVYHKPDENRLPDNLAGLAGRATVKVYSKAEPNYNLTIRDGKVILAPADPSDEAQHWYKDEKYSTKVKDADGHPCFALVNKATGEAMKHSVGATHPVHLIRYVPDKLDESVLWTESKDFGDGYRTIRMVNNTRLNVDAYHGDSKSGGVRDGTTIVLWDWNKGDNQLWKIFPFILEQKLISEEDLNSAVDHHHHHH
glycan array binding signal (z-score) (Gal(b1-4)Glc6S): 0.245
glycan array binding signal (z-score) (Gal(b1-4)GlcNAc): 0.233
glycan array binding signal (z-score) [1]: -0.17
glycan array binding signal (z-score) (Gal(b1-4)GlcNAc(b1-2)Man): -0.273
glycan array binding signal (z-score) [2]: -0.234
glycan array binding signal (z-score) [3]: 0.449
glycan array binding signal (z-score) [4]: -0.259
glycan array binding signal (z-score) [5]: -0.012
glycan array binding signal (z-score) [6]: 0.158
glycan array binding signal (z-score) [7]: -0.211
glycan array binding signal (z-score) [8]: 2.12
glycan array binding signal (z-score) [9]: -0.327
glycan array binding signal (z-score) [10]: 0.11
glycan array binding signal (z-score) [11]: -0.253
glycan array binding signal (z-score) [12]: -0.031
glycan array binding signal (z-score) [13]: -0.149
glycan array binding signal (z-score) [14]: 5.54
glycan array binding signal (z-score) [15]: 0.012
glycan array binding signal (z-score) [16]: -0.242
glycan array binding signal (z-score) [17]: -0.026
glycan array binding signal (z-score) [18]: -0.312
glycan array binding signal (z-score) [19]: -0.332
glycan array binding signal (z-score) [20]: -0.056
glycan array binding signal (z-score) [21]: -0.162
glycan array binding signal (z-score) [22]: -0.236
glycan array binding signal (z-score) [23]: -0.233
glycan array binding signal (z-score) [24]: -0.246
glycan array binding signal (z-score) [25]: -0.12
glycan array binding signal (z-score) [26]: -0.182
glycan array binding signal (z-score) [27]: -0.101
glycan array binding signal (z-score) [28]: -0.1
glycan array binding signal (z-score) [29]: -0.242
glycan array binding signal (z-score) [30]: -0.013
glycan array binding signal (z-score) [31]: -0.266
glycan array binding signal (z-score) (Gal(b1-4)GlcNAc6P): -0.17
glycan array binding signal (z-score) (Gal(b1-6)Gal): -0.083
glycan array binding signal (z-score) (Gal3S(b1-3)GalNAc): -0.286
glycan array binding signal (z-score) (Gal3S(b1-3)GlcNAc): -0.279
glycan array binding signal (z-score) [32]: -0.23
glycan array binding signal (z-score) (Gal3S(b1-4)Glc): -0.146
glycan array binding signal (z-score) (Gal3S(b1-4)Glc6S): -0.236
glycan array binding signal (z-score) (Gal3S(b1-4)GlcNAc): -0.266
glycan array binding signal (z-score) (Gal3S(b1-4)GlcNAc6S): -0.003
glycan array binding signal (z-score) [33]: -0.141
glycan array binding signal (z-score) [34]: -0.263
